We go through 47 compounds from PubChem BioAssay AID1508623 (National Center for Advancing Translational Sciences (NCATS), 2021).

Out of some 48,000 compounds screened, about 450 (0.94%) were called active. Another 19% or so got no clear call; they are omitted. The call rests on the fitted dose curve; in most records, active means well fitted inhibition curve with a large enough effect; inconclusive means small, poorly fitted or top-dose-only effect; inactive means no such curve, though single readings can be large or run the other way. The list shows a part of the results.

The nature of this test: Primary qHTS for Identification of Small Molecule Inhibitors of Huntingtin Promoter Activity. Further: nearly all actives have a fitted effect of over 50% in size. Conditions: HEK293 HTT promoter firefly luciferase reporter (activity 0% = vehicle and -100% = no light), 24 h; series mostly up to 57.5 µM; activity change, negative = inhibition: at the top concentration. The procedure, abridged: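 Firefly luciferase signal from promoter-reporter HEK293 cells was scaled between vehicle (0%) and zero RLU (-100%). Compounds were tested at final concentrations of up to 57.5 uM over 24 h at 37 degrees C. PTC124 at 50 uM final served as control inhibitor.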
(qHTS replaces the single test concentration by a dilution series.)
With `Cc1ccc(NC(=O)Cn2c(=O)n(CCC(C)C)c(=O)c3cccnc32)cc1C`, the “activity change, negative = inhibition” value was inactive: -9.03%. The value for `COc1ccc(Cl)cc1NC(=O)Cn1c(=O)n(Cc2ccc(F)cc2)c(=O)c2cccnc21` was inactive: -24.8%; that for `CCN(CCO)CCCC(C)Nc1ccnc2cc(Cl)ccc12` (configuration not stated) was “inactive”; that for `CC1CN(C(=O)N2CCC(C(=O)NCc3ccccc3F)CC2)c2cc(Cl)ccc2O1` (configuration not stated) was inactive: -28.6%. On to `CCOc1ccc(NC(=O)C(C)n2c(=O)cc(-c3ccccc3)c3c(C)nn(C)c32)cc1` (configuration not stated), for which the “activity change, negative = inhibition” value was inactive: 15.5%.

Consider `COc1ccc(CCNC(=O)CN(c2ccccc2)S(=O)(=O)N(C)C)cc1`, for which the “activity change, negative = inhibition” value was inactive: 0.739%. Turning to `COc1ccccc1-c1nn(CCC(=O)Nc2ccccc2)c2nc(C)cc(C)c12`, the “activity change, negative = inhibition” value was inactive: -15.4%. As to `Cc1ccc2nc(-c3ccc(C)s3)c(Nc3ccc4c(c3)OCCO4)n2c1`, the “activity change, negative = inhibition” value was inactive: 28.2%. As to `O=C(Nc1ccc(F)c(F)c1)C(c1ccccc1)N1Cc2ccccc2C1=O` (configuration not stated), the “activity change, negative = inhibition” value was inactive: -11.7%. On to `CCN(CC)CCNC(=O)c1cc2c(-c3cccc(OC)c3)nn(C)c2s1`, for which the “activity change, negative = inhibition” value is inactive: -19.8%. Take `CCOc1ccccc1NC(=O)Cn1c(=O)n(CCCC(=O)NCc2ccc(C)cc2)c(=O)c2ccccc21`: the “activity change, negative = inhibition” value is inactive: -3.43%. As for `Cc1ccc(C(=O)N2CCN(CCc3ccncc3)CC2)cc1`, the figure is inactive: -15.7%; as for `Cc1nn(C(C)C(=O)NCc2ccco2)c(=O)c2nn(-c3ccccc3)c(C)c12` (configuration not stated), inactive: -16.1%; as for `Cc1cccc2sc(N(Cc3cccnc3)C(=O)c3ccco3)nc12`, inactive: -26.2%. Take `COc1ccccc1OCC(=O)NCCS(=O)(=O)N1CCN(c2ccccc2OC)CC1`: the “activity change, negative = inhibition” value was inactive: -14.2%. As for `CCOC(=O)c1c(CSc2ccccc2)n(C)c2cc(Br)c(O)c(CN(C)C)c12`, the “activity change, negative = inhibition” value is inactive: -14.7%. Take `COc1ccc(NC(=O)C(NS(=O)(=O)c2cccc3nsnc23)C(C)C)cc1OC` (configuration not stated): the activity change, negative = inhibition is inactive: -9.37% [at 11.5 µM]. The value for `COc1ccc(-c2nc(S(=O)(=O)c3ccccc3)c(N3CCC(C)CC3)o2)cc1` was inactive: -2.97%. The value for `Oc1ccc(NCc2ccccc2OCc2ccccc2)cc1` was inactive: -1.87%; that for `COc1cccc(Nc2nc3c(S(=O)(=O)c4cc(C)ccc4C)nnn3c3ccsc23)c1` was inactive: -11.2%; that for `CC(=O)Nc1c(C)nn(-c2ccccc2)c1N1CCC(C(=O)Nc2ccccc2C(F)(F)F)CC1` was inactive: 17.6%. Regarding `O=C(CN1c2ccc(Br)cc2-c2ccccc2S1(=O)=O)N1CCCCC1`, the “activity change, negative = inhibition” value was inactive: 78.2%. As for `Cc1ccc(NC(=O)N2CCN(Cc3nc4ccc(C)cc4o3)CC2)cc1`, the figure is inactive: -36.6%; as for `CC(C)c1ccc2c(c1)c(SC(C)(C)C)c(CC(C)(C)C(=O)O)n2Cc1ccc(Cl)cc1`, inactive: -33%. The value for `Cc1cc(=O)c2cc(C(=O)Nc3ccc(F)cc3)ccc2[nH]1` was inactive: 12.5%.

On to `Cc1cc(C)c(NC(=O)CSC2=Nc3ccccc3C3=NC(CC(=O)NCc4cccs4)C(=O)N23)c(C)c1` (configuration not stated), for which the “activity change, negative = inhibition” value was inactive: -11.9%. As for `CCN1CCc2nc3sc(C(=O)Nc4ccccc4OC(F)(F)F)c(N)c3cc2C1`, the figure is inactive: -7.47%.

For `COc1ccc(C)cc1-n1nnc(S(=O)(=O)c2ccc(C)cc2)c1C`, the “activity change, negative = inhibition” value was inactive: -21.2%. On to `COc1ccc(CNc2oc(/C=C/c3cc(OC)c(OC)c(OC)c3)nc2C#N)cc1`, for which the “activity change, negative = inhibition” value was inactive: -15.5%. As for `O=C(Cn1c(-c2cccs2)cc2cc(F)ccc21)N1CCN(c2ccccc2)CC1`, the “activity change, negative = inhibition” value is inactive: -33.8%. As to `CCOc1ccc(Nc2oc(/C=C/c3ccc(OC)c(OC)c3)nc2C#N)cc1`, the “activity change, negative = inhibition” value was inactive: -10.6%. On to `CN1CCCCC1CCN1c2ccccc2Sc2ccc(S(C)=O)cc21` (configuration not stated), for which the “activity change, negative = inhibition” value was inactive: -0.277%.

As for `CCN(CC)S(=O)(=O)c1ccc(C(=O)NC2CC(=O)N(c3ccc(OC)c(OC)c3)C2)cc1` (configuration not stated), the “activity change, negative = inhibition” value was inactive: -18%. As for `CC(=O)c1ccc(NC(=O)c2cc3sccc3n2Cc2ccc(Cl)cc2)cc1`, the figure is inactive: -12.8%; as for `Cc1ccc(N(CC(=O)NCCSc2ccccc2)S(=O)(=O)c2ccc(F)cc2)cc1`, inactive: -2.6%. Regarding `CCOCCCNC(=O)C(=O)Nc1c2c(nn1-c1ccccc1)CSC2`, the “activity change, negative = inhibition” value was inactive: -18.5%. As for `COCCCn1c(=O)c2sccc2n2c(CCCC(=O)Nc3cccc(OC)c3)nnc12`, the figure is inactive: -24.3%; as for `COc1ccc(CNC(=O)c2cc3cccc4c3n2CC(C)S4)cc1OC` (configuration not stated), inactive: -31.1%; as for `Cc1cccc(NC(=O)C2CCCN(S(=O)(=O)c3ccc4c(c3)CCCC(=O)N4)C2)c1` (configuration not stated), inactive: -25.9%. As for `COCCCn1c(SCC(=O)Nc2ccc(F)cc2)nc2c(sc3ccccc32)c1=O`, the figure is inactive: -13.3%; as for `O=C(c1ccc2c(c1)N(Cc1c(F)cccc1Cl)C(=O)c1ccccc1S2)N1CCCC1`, inactive: -23.8%. As to `COc1cc(NC(=O)CN2C(=O)COc3ccc(S(=O)(=O)NC4CCCC4)cc32)cc(OC)c1`, the “activity change, negative = inhibition” value is inactive: -3.99%. Consider `O=C(CO)N1CCC(c2[nH]nc(-c3ccc(Cl)cc3)c2-c2ccncn2)CC1`, for which the “activity change, negative = inhibition” value was inactive: -10.8%. With `CC(=O)N1CCCC1c1nc2ccccc2n1Cc1ccc(F)cc1` (configuration not stated), the “activity change, negative = inhibition” value was inactive: -14.9%.

Take `CCC(C)c1ccccc1OCC(=O)Nc1ccc(S(=O)(=O)Nc2cc(C)on2)cc1` (configuration not stated): the “activity change, negative = inhibition” value is inactive: -6.07%. As for `COc1cc(NS(=O)(=O)c2c(C(=O)N3CCCCC3)c(C)n(C)c2C)cc(OC)c1OC`, the “activity change, negative = inhibition” value was inactive: 1.54%. On to `CC1CCc2c(sc3nnn(CC(=O)Nc4c(C(C)C)cccc4C(C)C)c(=O)c23)C1` (configuration not stated), for which the “activity change, negative = inhibition” value was inactive: -26.7%.
